Results are given in words; binding and its absence hold for the method and conditions named. In cells and extracts the contact can be indirect. Some entries that bind do so weakly or less than the wild type. For some of these results: Where a sequence is shown, tags or fusion partners need not be part of it.
Key:
[1] = target: endogenous p53 (human (endogenous in HCT116)) (UniProt P04637); assay: co-IP; endogenous proteins; HCT116 p53+/+ cells without Act. D (unstressed); co-IP-IB
[2] = target: endogenous p53 (human (endogenous in HCT116)) (UniProt P04637); assay: proximity ligation; Duolink In Situ Red kit; methanol-fixed cells without Act. D treatment; anti-SBDS/mouse with anti-p53/rabbit
[3] = target: endogenous p53 (human (endogenous in HCT116)) (UniProt P04637); assay: co-IP; endogenous proteins; HCT116 p53+/+ cells treated with Act. D; co-IP-IB
[4] = target: endogenous p53 (human (endogenous in HCT116)) (UniProt P04637); assay: proximity ligation; Duolink In Situ Red kit; methanol-fixed cells treated with Act. D; anti-SBDS/mouse or anti-MDM2/mouse with anti-p53/rabbit; confocal microscopy
MDM2 (co-IP of Fig. S5) = MDM2 (co-IP of Fig. S5) (UniProt Q00987); assay: co-IP; co-IP-IB assays of Fig. S5; constructs and cells not shown
[5] = target: p53 (exogenous, from the p53 plasmid) (UniProt P04637); assay: co-IP; H1299 cells transfected with the indicated plasmids; IP with anti-p53 (Fig. 6a) or anti-Flag (Fig. 6b), IB
[6] = target: Flag-p53 fragment, amino acids 101-300 (UniProt P04637); assay: co-IP; cells transfected with ectopic SBDS and Flag-p53 fragments; co-IP-IB
[7] = target: Flag-p53 fragment, amino acids 1-100 (N-terminal transactivation (TA) domain) (UniProt P04637); assay: as above
[8] = target: Flag-p53 fragment, amino acids 301-393 (UniProt P04637); assay: as above
[9] = target: Flag-p53 fragment, amino acids 101-393 (UniProt P04637); assay: as above

Chains of the proteins cited; added tags and fusions are not shown.
UniProt Q00987: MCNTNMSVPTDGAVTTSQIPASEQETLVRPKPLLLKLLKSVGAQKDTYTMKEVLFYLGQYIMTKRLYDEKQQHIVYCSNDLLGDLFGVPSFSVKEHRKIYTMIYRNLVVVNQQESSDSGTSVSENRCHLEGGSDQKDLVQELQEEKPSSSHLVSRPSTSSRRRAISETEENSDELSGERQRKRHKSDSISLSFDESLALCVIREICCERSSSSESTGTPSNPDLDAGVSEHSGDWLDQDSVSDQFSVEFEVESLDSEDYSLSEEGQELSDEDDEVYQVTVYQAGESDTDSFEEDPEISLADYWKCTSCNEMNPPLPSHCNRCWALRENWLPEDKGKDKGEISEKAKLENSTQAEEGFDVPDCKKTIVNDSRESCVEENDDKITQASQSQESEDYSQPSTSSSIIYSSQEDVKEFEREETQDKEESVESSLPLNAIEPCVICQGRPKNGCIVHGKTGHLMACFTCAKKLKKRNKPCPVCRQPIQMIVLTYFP

B1: endogenous SBDS (protein, UniProt Q9Y3A5 1-250)
chain: MSIFTPTNQIRLTNVAVVRMKRAGKRFEIACYKNKVVGWRSGVEKDLDEVLQTHSVFVNVSKGQVAKKEDLISAFGTDDQTEICKQILTKGEVQVSDKERHTQLEQMFRDIATIVADKCVNPETKRPYTVILIERAMKDIHYSVKTNKSTKQQALEVIKQLKEKMKIERAHMRLRFILPVNEGKKLKEKLKPLIKVIESEDYGQQLEIVCLIDPGCFREIDELIKKETKGKGSLEVLNLKDVEEGDEKFE
In the case of B1, the binding [1] is reported as “binds weakly”, the binding [2] is reported as “no binding (condition: without Act. D treatment)” and the binding [3] is reported as “binds”. The binding [4] was “binds”.

B2: SBDS (co-IP with MDM2, Fig. S5) (protein, UniProt Q9Y3A5 1-250)
chain: MSIFTPTNQIRLTNVAVVRMKRAGKRFEIACYKNKVVGWRSGVEKDLDEVLQTHSVFVNVSKGQVAKKEDLISAFGTDDQTEICKQILTKGEVQVSDKERHTQLEQMFRDIATIVADKCVNPETKRPYTVILIERAMKDIHYSVKTNKSTKQQALEVIKQLKEKMKIERAHMRLRFILPVNEGKKLKEKLKPLIKVIESEDYGQQLEIVCLIDPGCFREIDELIKKETKGKGSLEVLNLKDVEEGDEKFE
With B2 the binding (MDM2 (co-IP of Fig. S5)) was “binds weakly”.

B3: Flag-SBDS (Flag-tagged pEnter-SBDS) (protein, UniProt Q9Y3A5 1-250)
chain: MSIFTPTNQIRLTNVAVVRMKRAGKRFEIACYKNKVVGWRSGVEKDLDEVLQTHSVFVNVSKGQVAKKEDLISAFGTDDQTEICKQILTKGEVQVSDKERHTQLEQMFRDIATIVADKCVNPETKRPYTVILIERAMKDIHYSVKTNKSTKQQALEVIKQLKEKMKIERAHMRLRFILPVNEGKKLKEKLKPLIKVIESEDYGQQLEIVCLIDPGCFREIDELIKKETKGKGSLEVLNLKDVEEGDEKFE
B3 was tested, and the binding [5] was “binds”.

B4: ectopic SBDS (co-expressed with the Flag-p53 fragments, Fig. 6d) (protein, UniProt Q9Y3A5 1-250)
chain: MSIFTPTNQIRLTNVAVVRMKRAGKRFEIACYKNKVVGWRSGVEKDLDEVLQTHSVFVNVSKGQVAKKEDLISAFGTDDQTEICKQILTKGEVQVSDKERHTQLEQMFRDIATIVADKCVNPETKRPYTVILIERAMKDIHYSVKTNKSTKQQALEVIKQLKEKMKIERAHMRLRFILPVNEGKKLKEKLKPLIKVIESEDYGQQLEIVCLIDPGCFREIDELIKKETKGKGSLEVLNLKDVEEGDEKFE
For B4, the binding [6] was “no binding”, the binding [7] was “binds” and the binding [8] was “no binding”. The binding [9] was “no binding”.

From PMC7083877
